This passage reports activity change, negative = inhibition results from PubChem BioAssay AID1745853 (National Center for Advancing Translational Sciences (NCATS), 2022).

What all share (assay): Primary Screen for Target Class Profiling of Small Molecule Inhibitors of Methyltransferases
Assay [1] addresses Glycine N-methyltransferase (Homo sapiens) (UniProt Q14749). The following applies: purified enzyme, MTase-Glo SAH luminescence; measured here: GNMT inhibition; at 40 µM; stronger effect = lower value. A digest of the protocol:
(§1)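 Each enzyme was assayed with SAM and its substrate. SAH formation detected by MTase-Glo luminescence; single-point 40 uM screen[…].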

Assay [2] deals with Guanidinoacetate N-methyltransferase (Homo sapiens) (UniProt Q14353). The following applies: purified enzyme, MTase-Glo SAH luminescence; measured here: GAMT inhibition; at 40 µM; stronger effect = lower value. A digest of the protocol: as §1
Assay [3] addresses Histamine N-methyltransferase (Homo sapiens) (UniProt P50135). To be noted: purified enzyme, MTase-Glo SAH luminescence; measured here: HNMT inhibition; at 40 µM; stronger effect = lower value. A digest of the protocol: as §1
The target of assay [4] is Nicotinamide N-methyltransferase (Homo sapiens) (UniProt P40261). The following applies: purified enzyme, MTase-Glo SAH luminescence; measured here: NNMT inhibition; at 40 µM; stronger effect = lower value. A digest of the protocol: as §1
Assay [5] addresses Phenylethanolamine N-methyltransferase (Homo sapiens) (UniProt P11086). To be noted: purified enzyme, MTase-Glo SAH luminescence; measured here: PNMT inhibition; at 40 µM; stronger effect = lower value. A digest of the protocol:
as §1

Structures are written as SMILES. Where “and” joins values, the source holds several entries; their conditions need not be identical. Equal entries are not always repeated. The list shows a part of the results. These are further read-outs of the screen, such as a control signal, another cell line or another target. No call is given for them.
% is scaled to controls: 0 for no effect and ±100 for the full control effect.

With `COc1ccc([C@@H]2CN(C(=O)Cc3nonc3C)[C@@H]3C4CCN(CC4)[C@@H]32)cc1`, the activity change, negative = inhibition is -4.48% in assay [1]; -0.641% in assay [2]; -0.54% in assay [3]; -8.32% in assay [4]; -1.36% in assay [5].
Regarding `O=C(Nc1ccc(=O)n2c1[C@@H]1C[C@@H](CN(C(=O)NC3CCCCC3)C1)C2)c1ccco1`, the activity change, negative = inhibition in assay [1] is -5.15%; in assay [2] it was -4.02%; in assay [3] it was -1.38%; in assay [4] it was -9.04%; in assay [5], -6.78%.
The like results for `O=C(NCCc1ccccc1)N1Cc2ccccc2-n2cccc2C1c1ccccc1` (configuration not stated) were, in that order, 3.71%, 0%, 1.16%, -0.544% and 3.36%.
The like results for `CC1c2cccn2-c2ccccc2CN1C(=O)Nc1ccc(F)cc1F` (configuration not stated) were, in that order, 6.38%, 1.07%, -0.48%, -3.52% and 3.89%.
In the case of `CCOc1ccc(C2c3cccn3-c3ccccc3CN2C(=O)Nc2cccc(SC)c2)cc1` (configuration not stated), the activity change, negative = inhibition in assay [1] was found to be 4.61%; in assay [2], 1.13%; in assay [3], 4.87%; in assay [4], 2.32%; in assay [5], 7.54%.
Turning to `Cc1nc(-c2ccccc2)cc([C@H]2CN3CC[C@H]2C[C@@H]3CNS(C)(=O)=O)n1`, the activity change, negative = inhibition in assay [1] was 0.758%; in assay [2] it was -6.84%; in assay [3] it was -4.23%; in assay [4] it was -12.9%; in assay [5] it was 2.94%.
As for `CC(C)C1=NOC2(CCCN(Cc3ccccn3)C2)C1` (configuration not stated), the activity change, negative = inhibition is -1.03% in assay [1]; 1.06% in assay [2]; 1.45% in assay [3]; -4.3% in assay [4]; 15.7% in assay [5].
On the same counts, the results for `CC12NC(Cc3ccccc31)c1ccccc12` (configuration not stated) are 8.3%, 8.58%, 2.62%, -7.82% and -1.94%.
The like results for `CN(C)c1ccc(C2c3cccn3-c3ccccc3CN2C(=O)Nc2ccc(F)cc2)cc1` (configuration not stated) were, in that order, 7.21%, -0.339%, -8.2%, -2.88% and 2.03%.
The like results for `C[C@H](Nc1ncnc2nc[nH]c12)c1nc2ccc(F)cc2c(=O)n1-c1ccccc1` were, in that order, -13.9%, -22.6%, -3.23%, -24% and 2.2%.
Turning to `C=C[C@H]1CN2CC[C@H]1C[C@@H]2CNC(=O)Nc1ccc(Br)cc1`, the activity change, negative = inhibition in assay [1] is -4.61%; in assay [2], -4.09%; in assay [3], -76.1%; in assay [4], -8.88%; in assay [5], -14.3%.
Consider `CCNC(=O)CC1N=C(c2ccc(Cl)cc2)c2cc(OC)ccc2-n2c(C)nnc21` (configuration not stated), for which the activity change, negative = inhibition in assay [1] was 2.78% and -2.13% and 3.32%; in assay [2], -2.44%; in assay [3], 9.27% and 4.67% and 10.1%; in assay [4] it was -13.3% and 4.18%; in assay [5], 5.21% and 31.8%.
As for `O=C1C=CC[C@@H]2[C@H]3CCCN4CCC[C@@H](CN12)[C@@H]34`, the activity change, negative = inhibition is 2.9% in assay [1]; 1.03% in assay [2]; 0.77% in assay [3]; -10.7% in assay [4]; -1.73% in assay [5].
Consider `Cc1ccccc1C1c2cccn2-c2ccccc2CN1C(=O)Nc1ccc(Cl)cc1` (configuration not stated), for which the activity change, negative = inhibition in assay [1] was determined as 11.8%; in assay [2] it was 0%; in assay [3], 10.7%; in assay [4], 0.226%; in assay [5], 8.71%.
The like results for `O=C1N(Cc2cccnc2)C[C@H]2CN(C3CCC3)CCN12` were, in that order, -2.12%, -3.87%, -0.826%, -3.59% and -14.7%.
The like results for `Cc1ccc(C2c3cccn3-c3ccccc3CN2C(=O)Nc2ccc(C)c(C)c2)cc1` (configuration not stated) were, in that order, 4.61%, 1%, -5.98%, -8.69% and -4.18%.
Consider `C[N@@+]1(CC2CC2)CC[C@]23c4c5ccc(O)c4O[C@H]2C(=O)CC[C@@]3(O)[C@H]1C5`, for which the activity change, negative = inhibition was 1.59% in assay [1] and 4.58% in assay [3].
Turning to `CCOc1ccc(NC(=O)N2Cc3c(C)cc(C)nc3-n3cccc3C2c2ccc(F)cc2)cc1` (configuration not stated), the activity change, negative = inhibition is -3.13% in assay [1]; 4.3% in assay [2]; -2.33% in assay [3]; -3.35% in assay [4]; -7.95% in assay [5].
The like results for `C=CCN1CC[C@]23CCCCC2[C@H]1Cc1ccc(O)cc13` (some centres not stated) were, in that order, -3.68%, 2.12%, -33.8%, -14.9% and 0.979%.
Take `Cn1nc(C2CCCC2)cc1[C@H]1CN2CC[C@H]1C[C@@H]2CNC(=O)c1cccs1`: the activity change, negative = inhibition in assay [1] is -3.4%; in assay [2], -4.01%; in assay [3] it was -7.75%; in assay [4], -11.3%; in assay [5], -20.3%.
`COC(=O)CCNC(=O)N1Cc2ccccc2-n2cccc2C1c1ccccc1C` (configuration not stated): the activity change, negative = inhibition in assay [1] is 8.2%; in assay [2] it was 0.896%; in assay [3], -2.8%; in assay [4] it was 3.82%; in assay [5], 8.45%.
The like results for `CCOC(=O)CNC(=O)N1Cc2ccccc2-n2cccc2C1c1cccc(C)c1` (configuration not stated) were, in that order, -0.595%, 2.1%, -2.97%, -6.55% and -1.34%.
On the same counts, the results for `C/C=C(\C)C(O)C(C)/C=C(C)/C=C/C/C(C)=C/Cc1nc(OC)c(OC)c(O[C@@H]2O[C@@H](C)[C@H](O)[C@@H](O)[C@H]2O)c1C` (some centres not stated) are -1.69%, 4.34%, -4.98%, -6.14% and 2.46%.
The like results for `CCc1ccc(C2c3cccn3-c3ccccc3CN2C(=O)Nc2ccc(C)c(C)c2)cc1` (configuration not stated) were, in that order, 10.8%, 2.18%, 7.49%, 10.1% and 9.34%.
Take `COc1ccc(NC(=O)N2Cc3ccccc3-n3cccc3C2c2cccs2)cc1OC` (configuration not stated): the activity change, negative = inhibition in assay [1] is 9.03%; in assay [2] it was 5.56%; in assay [3], 1.83%; in assay [4], -5.1%; in assay [5] it was 6.13%.
The like results for `CC(=O)N1CCC2(C1)N=C(c1cccnc1)C(=O)N2` (configuration not stated) were, in that order, -5.76%, -0.774%, -0.455%, -6.49% and 5.29%.
Consider `CCOCCCNC(=O)N1Cc2ccccc2-n2cccc2C1c1cccc(Cl)c1` (configuration not stated), for which the activity change, negative = inhibition in assay [1] is 9.06%; in assay [2], 4.73%; in assay [3], 3.19%; in assay [4], -0.288%; in assay [5] it was 7.07%.
The like results for `O=C(NCC1CCOCC1)c1cnc(Nc2ccc(Cl)cc2Cl)nc1C(F)(F)F` were, in that order, -7.1%, -12.8%, 0.237%, -36.5% and -2.59%.
On the same counts, the results for `CN1CCc2cccc(Cl)c2CC1` are 7.66%, 12.3%, -16.2%, -3.12% and -11.8%.
For `C[C@]12CC[C@@H]3c4ccc(OC(=O)N(CCCl)CCCl)cc4CC[C@H]3[C@@H]1CC[C@@H]2OP(=O)(O)O`, the activity change, negative = inhibition in assay [1] is -20.4%; in assay [2], 14.3%; in assay [3], 6.65%; in assay [4], -10.3%; in assay [5], 5.21%.
